Assay results: PubChem BioAssay AID1347073 (National Center for Advancing Translational Sciences (NCATS), 2019)
Hit rate of the full screen: of about 45,000 compounds, about 200 (0.44%) were called active. Inconclusive results (about 7%) are left out. Calls follow the shape of the dose curve; as a rule, active = well fitted activation curve with a large enough effect; inconclusive = small, poorly fitted or top-dose-only effect; inactive = no such curve, though single readings can be large or run the other way. Some of the results follow.

Assay: qHTS of TDP-43 Inhibitors: NCGC Sytravon Library Screen; also: 0% is about no effect; nearly all actives have a fitted effect of over 55% in size
Settings: yeast TDP-43 toxicity rescue, BacTiter-Glo growth, 24 h; series mostly up to 46.1 µM; growth rescue (activation): at the top concentration
In short: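 TDP-43-expressing yeast, pregrown in raffinose, seeded at OD600 0.02 in galactose medium with compound for 24 hr at 30 deg C. Growth read by BacTiter-Glo luminescence, so rescue of toxicity appears as activation.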

SMILES	growth rescue (activation)
O=S(=O)(NCc1csc(-c2ccccc2)n1)c1ccccc1	inactive: 28.6%
CC(C)(C)c1nnc(NC(=O)NS(=O)(=O)c2ccccc2)s1	inactive: -23.9%
CCN(Cc1ccccc1)C(=O)COC(=O)c1n[nH]c2ccccc12	inactive: 14.6%
Cc1ccc(N2CC(C(=O)Nc3ccc4c(c3)OCO4)CC2=O)cc1C (stereo not drawn)	inactive: -10.6%
COc1ccccc1OCC(=O)NC1CCCc2ccccc21 (stereo not drawn)	inactive: -2.64%
Cc1ccc(NC(=O)CCN2C(=O)C3C4CCC(C4)C3C2=O)cc1[N+](=O)[O-] (stereo not drawn)	inactive: 7.87%
COc1ccc(S(=O)(=O)N2CCCCC2)cc1NS(=O)(=O)c1ccc(CNC(C)=O)cc1	inactive: 28.6%
O=C(NC(=S)NCCN1CCOCC1)c1ccc(Cl)cc1	inactive: 2.72%
Cc1nnc(SCC(=O)Nc2sc3c(c2C#N)CCCCC3)n1N	inactive: 8.98%
C=CCn1c(-c2ccncc2)n[nH]c1=S	inactive: 8.1%
COc1cccc(CNc2nc3cc(-c4cnn(Cc5ccccc5)c4)sc3c(=O)n2C)c1	inactive: 19.4%
CCOC(=O)c1c(C)n(C)c2cc(-c3ccc(C)cc3)c(O)cc12	inactive: 1.57%
O=C(NCCCc1ccccc1)c1cccc([N+](=O)[O-])c1	inactive: 25.2%
CCOc1ccc(N(CC(=O)NCc2ccccc2)C(=O)Cn2nnc(-c3ccc(C)o3)n2)cc1	inactive: 16.9%
CNC(=O)CS(=O)CC(=O)Nc1cc(OCCOC)c(Cl)cc1Cl (stereo not drawn)	inactive: 2.77%
COc1cc(SC)ccc1C(=O)OCC(=O)N1CCCC1	inactive: 9.8%
CC(C)c1ccc(CNc2nc(NCC3CC3)nc3ccsc23)cc1	inactive: 10.6%
CCN(CC)S(=O)(=O)c1ccc(N2CCOCC2)c(NS(=O)(=O)c2cc(C(C)(C)C)ccc2C)c1	inactive: -11.3%
Cn1c(N)c(C(=O)COC(=O)/C=C/c2ccccc2F)c(=O)n(C)c1=O	inactive: 4.25%
CCCCNC(=S)Nc1ccc2nc(N3CCN(CC)CC3)cc(C)c2c1	inactive: 7.66%
COc1ccccc1NS(=O)(=O)c1cc([N+](=O)[O-])ccc1N/N=C/c1sc(N2CCOCC2)nc1-c1ccccc1	inactive: -2.12%
CCOc1cccc(C(=O)NC(=S)Nc2ccccc2)c1	inactive: 24.7%
COc1ccc(NC(=O)CSCc2ccc(C)cc2)cc1	inactive: 26.5%

SMILES	growth rescue (activation)
COc1ccc(-c2c[n+]3c(n2-c2ccccc2)SCC3)cc1	inactive: 2.65%
COc1ccc(CCN(C)C2CCCN(S(=O)(=O)N(C)C)C2)cc1OC (stereo not drawn)	inactive: 3.85%
COC(=O)c1ccccc1Sc1c(/C=N/OC(=O)c2ccccc2)c(C(F)(F)F)nn1C	inactive: 24.2%
CCNC(=O)CNC(=O)c1nn(Cc2ccccc2)c(=O)c2ccccc12	inactive: 5.94%
CCCC1=C(C(=O)OCC)C(c2ccccc2OC)NC(=O)N1 (stereo not drawn)	inactive: -2.4%
CC1CN(C(=O)/C=C/c2ccc(SC(F)F)cc2)CC(C)O1 (stereo not drawn)	inactive: -5.95%
O=C1CCCN1CC(=O)N1CCCC(N2CCN(c3cccc(Cl)c3)CC2)C1 (stereo not drawn)	inactive: -13.9%
CCCCC(=O)NC(Nc1sc2c(c1C(N)=O)CCCC2)(C(=O)OCC)C(F)(F)F (stereo not drawn)	inactive: 2.16%
S=C(Nc1ccc(Nc2ccccc2)cc1)NC1CCCCCC1	inactive: 7.83%
CC1=C(C(=O)OCc2ccccc2)C(c2ccc(N3CCOCC3)cc2)NC(=O)N1 (stereo not drawn)	inactive: 17.4%
COc1cc(N)c(Cl)cc1C(=O)OCC(=O)N1c2ccccc2NC(=O)C1(C)C	inactive: 8.36%
O=C(c1nn2c(C(F)(F)F)cc(-c3cccs3)nc2c1Br)N1CCCc2ccccc21	inactive: 7.71%
COC(=O)c1ccc(C2NC(=O)c3ccccc3O2)cc1 (stereo not drawn)	inactive: 26.2%
COc1cc(/C=C/C(=O)O)cc(Br)c1O	inactive: 28.7%
CN(c1ccc(OCC(=O)N2CCOCC2)cc1)S(=O)(=O)c1ccc(Cl)cc1	inactive: 9.27%
Cc1cc(Oc2nc3c(C)cccn3c(=O)c2/C=C(\C#N)S(=O)(=O)c2ccc(Cl)cc2)ccc1Cl	inactive: -18.9%
CCOC(=O)c1ccc(NC(=S)N2CCN(c3ccc(N4CCOCC4)nn3)CC2)cc1	inactive: 3.88%
O=S(=O)(Nc1cccc2ccccc12)c1ccccc1	inactive: 16.3%
Cc1cc(NC(=O)COC(=O)c2c(C)c(C)c(C)c(C)c2C)no1	inactive: 40.7%
O=C(OCc1ccc(Br)cc1F)c1cc2ccccc2oc1=O	inactive: -12.9%
CC(C)CCC(C)NC(=O)C1CCN(S(=O)(=O)/C=C/c2ccccc2)CC1 (stereo not drawn)	inactive: 0.599%
COC(=O)C1=CN(c2ccc(F)cc2)C=C(C(=O)OC)C1c1ccc([N+](=O)[O-])cc1	inactive: 7.09%
N#CCO/N=C/C(=O)Nc1ccc(F)cc1F	inactive: 2.63%

SMILES	growth rescue (activation)
C/C(=N\Nc1ccc([N+](=O)[O-])cc1)c1ccc(N2CCOCC2)cc1	inactive: -4.43%
CCNC(=S)N/N=C/c1ccc(C#N)cc1	inactive: -21.7%
CCC(C)c1c(O)nc(SCC(=O)N2CCCCCC2)[nH]c1=O (stereo not drawn)	inactive: 9.08%
CCOC(=O)C1CCN(c2ccc(Cl)nn2)CC1	inactive: 8.08%
CCC(=O)Nc1cccc(NC(=O)c2ccccc2Cl)c1	inactive: -0.74%
Cc1nn(-c2ccccc2)c(N2CCCC2)c1/C=N/NC(=O)c1cc(-c2ccccc2)nc2ccccc12	inactive: -0.208%
O=C(NC(=S)Nc1ccc(NC(=O)c2cccs2)cc1)c1ccco1	inactive: 12.3%
COc1ccc(S(=O)(=O)Nc2c(C)cccc2C)cc1-n1cnnn1	inactive: 10.8%
Cc1ccc(N2CCN(C(=O)C3CCN(S(=O)(=O)c4cccc5nsnc45)CC3)CC2C)cc1 (stereo not drawn)	inactive: 8.07%
COC(=O)c1sccc1S(=O)(=O)NC(C)c1cnn(-c2ccc(OC)cc2)c1C (stereo not drawn)	inactive: 1.37%
COc1cccc(C(=O)NNC(=O)c2cccnc2)c1	inactive: -5.44%
COc1ccc(-n2nc(C(=O)NCC(=O)N3CCCCCC3)c3ccccc3c2=O)cc1OC	inactive: 23%
O=C(Nc1ccc(Cl)cc1)Nc1nnc(CSc2ccc(Cl)cc2)s1	inactive: 5.07%
COc1ccccc1NC(=S)NCc1cccnc1	inactive: 0.269%
CCN(CC)CCCN1C(=O)C2C(C(=O)Nc3ccc(C(C)C)cc3)C3C=CC2(O3)C1C(=O)NC1CCCCC1 (stereo not drawn)	inactive: 6.16%
Cc1nc(CNS(=O)(=O)c2ccc(Br)cc2)cs1	inactive: 9.44%
O=S(=O)(c1ccc(NC(=S)NC2CC2)cc1)N1CCOCC1	inactive: 0.98%
O=C(CCCCl)NC(=S)Nc1ccc(N2CCOCC2)cc1	inactive: 6.96%
CCc1nn2c(=O)c(S(=O)(=O)Nc3ccccc3)c(C)nc2s1	inactive: 4.09%
CNc1nc(-c2ccc3c(c2)CCN3C(=O)c2ccccc2C)cs1	inactive: 24.8%
COc1ccc(CC(=O)NCC(=O)N/N=C(/C)c2ccco2)cc1	inactive: -0.354%
Brc1ccc(OCCOc2cccc3cccnc23)cc1	inactive: 25.8%
